# Results: the supplement of paper PMC8728848
# The other results are listed elsewhere or left out.
# What was measured:
# Test in all cases: glycan array binding signal (z-score within array); higher = stronger binding
# Settings in all cases: glycan notation: IUPAC condensed, linker removed
# [1] = target: Neu5Ac(a2-3)GalNAc
# In short: (§1)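 Glycan array data came from 3228 arrays in the Consortium for Functional Glycomics database, and only arrays with an available protein sequence were kept. Glycan names were put into IUPAC-condensed notation, and columns mapping to the same glycan were averaged. The binding signal is a within-array Z-score, averaged across arrays of one protein sequence run at different concentrations or buffers and across linkers. A negative Z-score can be read as non-binding.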
# [2] = target: Neu5Ac(a2-3)GalNAc(b1-4)GlcNAc
# In short: as §1
# [3] = target: Neu5Ac(a2-3)[GalNAc(b1-4)]Gal(b1-4)Glc
# In short: as §1
# [4] = target: Neu5Ac(a2-3)[GalNAc(b1-4)]Gal(b1-4)GlcNAc
# In short: as §1
# [5] = target: Neu5Ac(a2-3)[GalNAc(b1-4)]Gal(b1-4)GlcNAc(b1-3)GalNAc
# In short: as §1
# [6] = target: Neu5Ac(a2-3)[Neu5Ac(a2-6)]GalNAc
# In short: as §1
# [7] = target: Neu5Ac(a2-6)Gal
# In short: as §1
# [8] = target: Neu5Ac(a2-6)Gal(b1-3)GlcNAc(b1-3)[Gal(b1-4)GlcNAc(b1-6)]Gal(b1-4)Glc
# In short: as §1
# [9] = target: Neu5Ac(a2-6)Gal(b1-4)Glc
# In short: as §1
# [10] = target: Neu5Ac(a2-6)Gal(b1-4)GlcNAc
# In short: as §1
# [11] = target: Neu5Ac(a2-6)Gal(b1-4)GlcNAc(b1-2)Man
# In short: as §1
# [12] = target: Neu5Ac(a2-6)Gal(b1-4)GlcNAc(b1-2)Man(a1-3)Man(b1-4)GlcNAc(b1-4)GlcNAc
# In short: as §1
# [13] = target: Neu5Ac(a2-6)Gal(b1-4)GlcNAc(b1-2)Man(a1-3)[Gal(b1-4)GlcNAc(b1-2)Man(a1-6)]Man(b1-4)GlcNAc(b1-4)GlcNAc
# In short: as §1
# [14] = target: Neu5Ac(a2-6)Gal(b1-4)GlcNAc(b1-2)Man(a1-3)[GlcNAc(b1-2)Man(a1-6)]Man(b1-4)GlcNAc(b1-4)GlcNAc
# In short: as §1
# [15] = target: Neu5Ac(a2-6)Gal(b1-4)GlcNAc(b1-2)Man(a1-3)[GlcNAc(b1-4)][Neu5Ac(a2-6)Gal(b1-4)GlcNAc(b1-2)Man(a1-6)]Man(b1-4)GlcNAc(b1-4)GlcNAc
# In short: as §1
# [16] = target: Neu5Ac(a2-6)Gal(b1-4)GlcNAc(b1-2)Man(a1-3)[Man(a1-6)]Man(b1-4)GlcNAc(b1-4)GlcNAc
# In short: as §1
# [17] = target: Neu5Ac(a2-6)Gal(b1-4)GlcNAc(b1-2)Man(a1-3)[Neu5Ac(a2-3)Gal(b1-4)GlcNAc(b1-2)Man(a1-6)]Man(b1-4)GlcNAc(b1-4)GlcNAc
# In short: as §1
# [18] = target: Neu5Ac(a2-6)Gal(b1-4)GlcNAc(b1-2)Man(a1-3)[Neu5Ac(a2-6)Gal(b1-4)GlcNAc(b1-2)Man(a1-6)]Man(b1-4)GlcNAc(b1-4)GlcNAc
# In short: as §1
# [19] = target: Neu5Ac(a2-6)Gal(b1-4)GlcNAc(b1-2)Man(a1-3)[Neu5Ac(a2-6)Gal(b1-4)GlcNAc(b1-2)Man(a1-6)]Man(b1-4)GlcNAc(b1-4)[Fuc(a1-6)]GlcNAc
# In short: as §1
# [20] = target: Neu5Ac(a2-6)Gal(b1-4)GlcNAc(b1-2)Man(a1-6)Man(b1-4)GlcNAc(b1-4)GlcNAc
# In short: as §1
# [21] = target: Neu5Ac(a2-6)Gal(b1-4)GlcNAc(b1-2)Man(a1-6)[Gal(b1-4)GlcNAc(b1-2)Man(a1-3)]Man(b1-4)GlcNAc(b1-4)GlcNAc
# In short: as §1
# [22] = target: Neu5Ac(a2-6)Gal(b1-4)GlcNAc(b1-2)Man(a1-6)[GlcNAc(b1-2)Man(a1-3)]Man(b1-4)GlcNAc(b1-4)GlcNAc
# In short: as §1
# [23] = target: Neu5Ac(a2-6)Gal(b1-4)GlcNAc(b1-2)Man(a1-6)[Man(a1-3)]Man(b1-4)GlcNAc(b1-4)GlcNAc
# In short: as §1
# [24] = target: Neu5Ac(a2-6)Gal(b1-4)GlcNAc(b1-2)[Neu5Ac(a2-6)Gal(b1-4)GlcNAc(b1-4)]Man(a1-3)[GlcNAc(b1-4)][Neu5Ac(a2-6)Gal(b1-4)GlcNAc(b1-2)[Neu5Ac(a2-6)Gal(b1-4)GlcNAc(b1-6)]Man(a1-6)]Man(b1-4)GlcNAc(b1-4)GlcNAc
# In short: as §1
# [25] = target: Neu5Ac(a2-6)Gal(b1-4)GlcNAc(b1-2)[Neu5Ac(a2-6)Gal(b1-4)GlcNAc(b1-4)]Man(a1-3)[GlcNAc(b1-4)][Neu5Ac(a2-6)Gal(b1-4)GlcNAc(b1-4)Man(a1-6)]Man(b1-4)GlcNAc(b1-4)GlcNAc
# In short: as §1
# [26] = target: Neu5Ac(a2-6)Gal(b1-4)GlcNAc(b1-2)[Neu5Ac(a2-6)Gal(b1-4)GlcNAc(b1-6)]Man(a1-6)[Neu5Ac(a2-6)Gal(b1-4)GlcNAc(b1-2)Man(a1-3)][GlcNAc(b1-4)]Man(b1-4)GlcNAc(b1-4)GlcNAc
# In short: as §1
# [27] = target: Neu5Ac(a2-6)Gal(b1-4)GlcNAc(b1-3)Gal(b1-3)GlcNAc
# In short: as §1
# [28] = target: Neu5Ac(a2-6)Gal(b1-4)GlcNAc(b1-3)Gal(b1-4)GlcNAc
# In short: as §1
# [29] = target: Neu5Ac(a2-6)Gal(b1-4)GlcNAc(b1-3)Gal(b1-4)GlcNAc(b1-2)Man(a1-3)[Neu5Ac(a2-6)Gal(b1-4)GlcNAc(b1-3)Gal(b1-4)GlcNAc(b1-2)Man(a1-6)]GalNAc
# In short: as §1
# [30] = target: Neu5Ac(a2-6)Gal(b1-4)GlcNAc(b1-3)Gal(b1-4)GlcNAc(b1-3)Gal(b1-4)GlcNAc
# In short: as §1
# [31] = target: Neu5Ac(a2-6)Gal(b1-4)GlcNAc(b1-3)Gal(b1-4)GlcNAc(b1-3)Gal(b1-4)GlcNAc(b1-2)Man(a1-3)[Neu5Ac(a2-6)Gal(b1-4)GlcNAc(b1-3)Gal(b1-4)GlcNAc(b1-3)Gal(b1-4)GlcNAc(b1-2)Man(a1-6)]GalNAc
# In short: as §1
# [32] = target: Neu5Ac(a2-6)Gal(b1-4)GlcNAc(b1-3)Gal(b1-4)GlcNAc(b1-3)GalNAc
# In short: as §1
# [33] = target: Neu5Ac(a2-6)Gal(b1-4)GlcNAc(b1-3)Gal(b1-4)GlcNAc(b1-3)[Neu5Ac(a2-6)Gal(b1-4)GlcNAc(b1-3)Gal(b1-4)GlcNAc(b1-6)]GalNAc
# In short: as §1
# [34] = target: Neu5Ac(a2-6)Gal(b1-4)GlcNAc(b1-3)Gal(b1-4)GlcNAc(b1-6)[Gal(b1-3)]GalNAc
# In short: as §1
# [35] = target: Neu5Ac(a2-6)Gal(b1-4)GlcNAc(b1-3)Gal(b1-4)[Fuc(a1-3)]GlcNAc(b1-3)Gal(b1-4)[Fuc(a1-3)]GlcNAc
# In short: as §1
# [36] = target: Neu5Ac(a2-6)Gal(b1-4)GlcNAc(b1-3)GalNAc
# In short: as §1
# [37] = target: Neu5Ac(a2-6)Gal(b1-4)GlcNAc(b1-3)[Neu5Ac(a2-6)Gal(b1-4)GlcNAc(b1-6)]GalNAc
# In short: as §1
# [38] = target: Neu5Ac(a2-6)Gal(b1-4)GlcNAc(b1-6)GalNAc
# In short: as §1
# [39] = target: Neu5Ac(a2-6)Gal(b1-4)GlcNAc(b1-6)[Gal(b1-3)GlcNAc(b1-3)]Gal(b1-4)Glc
# In short: as §1
# [40] = target: Neu5Ac(a2-6)Gal(b1-4)GlcNAc(b1-6)[Gal(b1-3)]GalNAc
# In short: as §1
# [41] = target: Neu5Ac(a2-6)Gal(b1-4)GlcNAc6S
# In short: as §1
# [42] = target: Neu5Ac(a2-6)GalNAc
# In short: as §1
# [43] = target: Neu5Ac(a2-6)GalNAc(b1-4)GlcNAc
# In short: as §1
# [44] = target: Neu5Ac(a2-6)GalNAc(b1-4)GlcNAc6S
# In short: as §1
# [45] = target: Neu5Ac(a2-6)GlcNAc(b1-4)GlcNAc
# In short: as §1
binder,measurement,setting,value
rCnSL-proB (Clitocybe nebularis) (protein) PTFSPIFALLAFLPFGTLASLLPQTQLVFRINPNLPGPNDVFVGYRGTNNVVGAIYERDGIKDTPMNNGADAELGPGSYITDDLFTAQIFASGSAGNNPGTTATVCKIYADGVQWRGAPKGYLPVLYFGNGQAAEQTRQTYLQGLDIPGTAIRFANLAKTPNQGPTAPRQMVVPSGGLQTLLKASCFPANHAALPQVLSYFNVRAALPPGWNIRTGPEFPNWTN,glycan array binding signal (z-score),[1],-0.922
same,glycan array binding signal (z-score),[2],0.049
same,glycan array binding signal (z-score),[3],0.279
same,glycan array binding signal (z-score),[4],-0.499
same,glycan array binding signal (z-score),[5],1.25
same,glycan array binding signal (z-score),[6],-0.488
same,glycan array binding signal (z-score),[7],-0.004
same,glycan array binding signal (z-score),[8],-0.672
same,glycan array binding signal (z-score),[9],0.084
same,glycan array binding signal (z-score),[10],-0.527
same,glycan array binding signal (z-score),[11],0.328
same,glycan array binding signal (z-score),[12],-0.31
same,glycan array binding signal (z-score),[13],-0.139
same,glycan array binding signal (z-score),[14],-0.339
same,glycan array binding signal (z-score),[15],-0.441
same,glycan array binding signal (z-score),[16],0.012
same,glycan array binding signal (z-score),[17],-0.255
same,glycan array binding signal (z-score),[18],-0.183
same,glycan array binding signal (z-score),[19],0.037
same,glycan array binding signal (z-score),[20],-0.465
same,glycan array binding signal (z-score),[21],-0.252
same,glycan array binding signal (z-score),[22],-0.553
same,glycan array binding signal (z-score),[23],0.08
same,glycan array binding signal (z-score),[24],-0.757
same,glycan array binding signal (z-score),[25],-0.186
same,glycan array binding signal (z-score),[26],-0.418
same,glycan array binding signal (z-score),[27],0.789
same,glycan array binding signal (z-score),[28],-0.804
same,glycan array binding signal (z-score),[29],0.728
same,glycan array binding signal (z-score),[30],0.146
same,glycan array binding signal (z-score),[31],3.06
same,glycan array binding signal (z-score),[32],-0.613
same,glycan array binding signal (z-score),[33],2.62
same,glycan array binding signal (z-score),[34],0.051
same,glycan array binding signal (z-score),[35],0.101
same,glycan array binding signal (z-score),[36],-0.47
same,glycan array binding signal (z-score),[37],-0.681
same,glycan array binding signal (z-score),[38],0.251
same,glycan array binding signal (z-score),[39],-0.154
same,glycan array binding signal (z-score),[40],-0.365
same,glycan array binding signal (z-score),[41],-0.186
same,glycan array binding signal (z-score),[42],-0.41
same,glycan array binding signal (z-score),[43],-0.802
same,glycan array binding signal (z-score),[44],-0.462
same,glycan array binding signal (z-score),[45],-0.255
